Drawing on the RNAGym collection of RNA variant scans (doi:10.7554/elife.90254), this text covers self-cleavage for 56 variants.

Read counts are not given, so values of variants with three or more changes are uncertain.

The chains are these.
B1: LINE1-mini (parent)
chain: GGCAGAGCUCAACACAGCGUGGCAAAGUGGCUGUGGCUAGACUGCC

In the series the parent is B1. Nature of the series: self-cleavage, relative activity (ratio to wild type); higher = more cleavage; in vitro, sequencing; the parent is a self-cleaving ribozyme.
As to GGCAGAGCCCAACACAGCGUGGCAAAGGGGCUGUGGCUAGAUUGCC, the self-cleavage was determined as 0.03.

Turning to GGCAGAGCGCCACACAGCGUGGCAAAGUGGCCGUGGCUAGACCGCC, the self-cleavage is 0.

On to GGCAGAGCCCAACAGAGCGUGGCAAAAUGGCUGUGGCUAGACUGAC, for which the self-cleavage was found to be 0.01.

With GGCAGAGCCCAACACAGUGUGGCAAAGCGGCUGUGGCUAGGCUGCU, the self-cleavage was found to be 0.02.

As for GGCAGAGCGCAACACGGCGUGACAAAGUGGCUGUGGCUGGACUGCC, the self-cleavage came out at 0.03.

GGCAGAGCCCAAAACAGCGUGGCAAAGUGGCUGUGGAUAGACUGCC: the self-cleavage came out at 0.

GGCAGAGCCCAACACAGCGUGGCAAAGUGGUUGUGGCUAGACCGCC: the self-cleavage was found to be 0.02.

Turning to GGCAGAGCCCAACACAGUAUUGCAGAGUUGUUGUGGCUAGACUGCC, the self-cleavage came to 0.

For GGCAGAGCCGAACACAGCAUGGCAAAGUGGCUGUGGCUAGAGUGCC, the self-cleavage is 0.01.

With GGCAGAGCCCAACACAGCGUGCCAAAGUGGCUGUGGAUAGACUGCC, the self-cleavage was 0.05.

Consider GGCAGAGCCCAACAUAGCGUGGCAAAGUGGCUGUGACUAGACUGCC, for which the self-cleavage worked out at 0.02.

In the case of GGCAGAGCCCAACACAGAUUGGCAAAGUGGCUGUGGCUAGACUGCC, the self-cleavage worked out at 0.1.

As to GGCAGAGCCCAAUACAGCGUGGCAAAGUGGCUGUGGCUAGACUGGC, the self-cleavage turned out to be 0.04.

Consider GGCAGAGCCCAACACAGCGUGGCACAGUGGCUGUUGCUAGACUCUC, for which the self-cleavage was 0.01.

As to GGCAGAGCCCAAUUCAGCAUGGCAAAGUGGCUGCGGCUAGACUGCC, the self-cleavage was found to be 0.04.

Regarding GGCAGAGCGCGACACAGUGUGGCAAAGUGGGUGUGGCUAGACUGCC, the self-cleavage is 0.01.

As for GGCAGAGCCAAACACAGCGUAGAAAAGUGGCUGUGGCUAGACUGCC, the self-cleavage worked out at 0.02.

Take GGCAGAGCCCAACACAGGGUUGCAAAGUGGCUGUGGCCAGACUGCC: the self-cleavage came to 0.03.

Take GGCAGAGCGCAACUCUGCGUGGCAAAGUGGCUGUGCCUAGACUGCC: the self-cleavage came to 0.05.

With GGCAGAGCCCAACACAGCGUAGCAAAGUGGCGGCGGCUAGACUGCC, the self-cleavage amounted to 0.01.

With GGCAGAGCCCAACACAGCGUGGCAAAGUGGUUCUCGCUAGACUGCC, the self-cleavage came to 0.02.

Regarding GGCAGAGCCCAACACAGAGUGGCAAGGUGGCUGUGGCUAGACUGCC, the self-cleavage came to 0.08.

Take GGCAGAGCCCAACACAGCGAGGCACAGUGGCUGUGGCUAGACUGCC: the self-cleavage turned out to be 0.03.

Regarding GGCAGAGCGCAACACUGCGUGGCAACGUGGCUGUGGCUAGACUGCC, the self-cleavage was 0.08.

On to GGCAGAGCGCCACAGAGCCUGCCAAAGUGGCUGUGGCUAGAGUGCC, for which the self-cleavage turned out to be 0.

For GGCAGAGCCCAACACAGCGUGCUAAAGUAGCUGUGGCUUGACAGCC, the self-cleavage was determined as 0.05.

GGCAGAGCCCAACACAGCAUGGCAAAGUGGCUGUGGCAAGACCGCC: the self-cleavage amounted to 0.01.

With GGCAGAGCCCAACACAGCGCGGCAAAGUGGCUGUUGCUAGACUGCC, the self-cleavage stood at 0.

Turning to GGCAGAGCGCAUCAAAGCGUGGCAAAGUGUCUGUGUCUAGACUGCC, the self-cleavage was 0.

In the case of GGCAGAGCCCAACACUACGUGGCAAAGUGGCUGUGGCUAGACUGCC, the self-cleavage is 0.02.

With GGCAGAGCCAGACACAGAGUGCCAAAGUGGCUGUGGGUAGACUGAC, the self-cleavage turned out to be 0.

In the case of GGCAGAGCGCAACGCAGCGUGGUAAAAUGGCUGUGGCUAGACUGCC, the self-cleavage was 0.06.

For GGCAGAGCCUACCACAGCGUGGCAAAGGGGCUGGAGCUAGACUGCC, the self-cleavage was 0.02.

As to GGCAGAGCCCAACACAGCGUGGCAAAGUGGCUGAGGGUAGACUGCC, the self-cleavage came out at 0.03.

On to GGCAGAGCCCAACACAGCGUGGCAAAGUAGCGGUGGCUAGACUGCC, for which the self-cleavage was found to be 0.01.

Consider GGCAGAGCGCAGUACAGCGUGGCAAAGUGGCUGUGGCUAGACUGCC, for which the self-cleavage was 0.01.

On to GGCAGAGCCUAACAAAGUGUGGCAAAGUGGCUGUGGCUAGACUGCC, for which the self-cleavage was found to be 0.02.

Regarding GGCAGAGCGCCACACAGCGUGGCAAAGUGGCUGUGGCUAGAGUGCC, the self-cleavage came out at 0.01.

Turning to GGCAGAGCCCAACACAGCGUGGCAAAGUGGCUGCAGCUAGACUGCC, the self-cleavage was 0.04.

Regarding GGCAGAGCCCAAGACAGCGUGGCAAAGUGGCUCUGGCUAGACUCCC, the self-cleavage was determined as 0.01.

For GGCAGAGCCCAACACAGGGUGGCAAAGUGGCUGUGGCUAUACUGCC, the self-cleavage worked out at 0.04.

Consider GGCAGAGCCCAACACAGCGUGGCAAAGUUGCUGUGGAUAUACUGAC, for which the self-cleavage was 0.02.

Take GGCAGAGCCCAACACAGCUUGCCAAAGUGGCUGUGGCUAGACUGCC: the self-cleavage was 0.04.

GGCAGAGCCCAACACAGCGUGGCAAAGUGGCUCUUGCUAGACUGCC: the self-cleavage stood at 0.03.

GGCAGAGCCCAACACAGCGUGGCAACGUGGCUGUGGCUAGGUUGCC: the self-cleavage worked out at 0.02.

On to GGCAGAGCCCAACACAGGGUGGCAAAGUGGCUGUGGCUAGAUUCCC, for which the self-cleavage came to 0.02.

In the case of GGCAGAGCGCAACUCAGCGUGGCAAAGUGGCUAUGGCUAGACUGCC, the self-cleavage stood at 0.16.

Turning to GGCAGAGCCCAACAGAGCGUGGCAAAGUGGCUGUGGCUAAACUGCC, the self-cleavage was 0.03.

Consider GGCAGAGCCCAACACAGCUUGGAAAAGUGGCUGUGGCUUGACUGCC, for which the self-cleavage stood at 0.01.

On to GGCAGAGCCCAACACAGCGAGGCAAAGUGGCUGUGGCUAUACUGCC, for which the self-cleavage came to 0.

Take GGCAGAGCCCAACACAACGUGGCAUAGUGGCUCUGGCUAGACUGCC: the self-cleavage turned out to be 0.01.

As for GGCAGAGCCCAACACAUCGUGGCAAAGUGGCUGUGCCUGGACUGCG, the self-cleavage came out at 0.01.

Take GGCAGAGCCGAACACAGCGUGCCAAAGUGGCUAUGGCUAGACUGCC: the self-cleavage amounted to 0.02.

Turning to GGCAGAGCCCAACACAACGUGGCAAAGUGGCUGUGGCUAGACUUCC, the self-cleavage was 0.01.

In the case of GGCAGAGCCCAACAGAGCGUGCCAAAGUGCCUGUGGCUAGACUGCC, the self-cleavage is 0.03.

For the variant GGCAGAGCCCAAUACAGCGCGGCAAAGUGGCUGUGGCUAGACUGCC, the self-cleavage was 0.02.
